This is an account of results in US6946544 (AEGERA THERAPEUTICS, dated 2005).

Assay [1] has as its target T1, 35S-labeled in vitro translated TRAF2 (UniProt Q12933 2-501, 35S labeled methionine).
T1 construct: mature; Made from the pcDNA3-myc construct with the TNT T7 Coupled Reticulocyte Lysate System
T1 sequence (looked up): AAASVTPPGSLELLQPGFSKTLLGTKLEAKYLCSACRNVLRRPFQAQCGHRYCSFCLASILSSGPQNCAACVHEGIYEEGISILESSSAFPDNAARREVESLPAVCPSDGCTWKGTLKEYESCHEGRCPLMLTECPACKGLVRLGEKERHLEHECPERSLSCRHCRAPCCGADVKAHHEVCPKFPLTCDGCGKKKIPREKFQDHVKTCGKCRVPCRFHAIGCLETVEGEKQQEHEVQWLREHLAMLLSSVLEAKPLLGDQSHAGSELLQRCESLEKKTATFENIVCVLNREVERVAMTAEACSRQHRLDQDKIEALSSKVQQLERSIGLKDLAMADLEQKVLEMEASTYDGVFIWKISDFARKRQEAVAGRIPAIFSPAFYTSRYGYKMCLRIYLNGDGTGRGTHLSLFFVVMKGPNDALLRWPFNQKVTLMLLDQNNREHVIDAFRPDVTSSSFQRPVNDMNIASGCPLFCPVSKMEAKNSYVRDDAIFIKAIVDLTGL
As to the kind of experiment: pull-down of 35S-labeled in vitro translated protein on GST-control protein on glutathione beads, SDS-PAGE and autoradiography. The method, then: (§1) ^35S-labeled in vitro translated proteins were incubated with GST-XAF-1 fusion protein or GST-control protein immobilized on 10 μl of glutathione beads. Protein adsorbed to beads were analyzed by SDS-PAGE. The protein bearing gel was then dried, and adsorbed proteins were detected by autoradiograph of the gel. The lanes were loaded as follows: lane 1: HIAP1, lane 2: TRAF2. Proteins in A lanes were affinity-purified with the GST-XAF-1 fusion protein. Proteins in B lanes were affinity-purified with the GST-control protein.

Assay [2] has as its target T2, 35S-labeled in vitro translated HIAP-1 (human, UniProt Q13489, 35S labeled methionine).
T2 construct: mature; Made from the pcDNA3-myc construct with the TNT T7 Coupled Reticulocyte Lysate System
The assay is described as above. The method, then: as §1

B1: GST-control protein (Glutathione-s-transferase from Schistosoma Japonicum) (enzyme)
chain: not shown
notes: Control protein immobilized on glutathione beads
Turning to B1, the binding result in assay [1] and in assay [2] was “no binding” each time.
